B1: CPEB3 Ribozyme (parent)
chain: UAACAGGGGGCCACAGCAGAAGCGUUCACGUCGCAGCCCCUGUCAGAUUCUGGUGAAUCUGCGAAUUCUGCUGUAUAUCUC

Read counts are not given, so values of variants with three or more changes are uncertain.

The variants in the data set derive from B1. Kind of data set: self-cleavage, relative activity (ratio to wild type); higher = more cleavage; in vitro, sequencing. Put shortly:
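For each CPEB3 ribozyme variant, relative activity is its cleaved/total read fraction divided by the unmutated ribozyme's. Barcoded error-prone PCR libraries were transcribed by T7 RNA polymerase (5 hours, 37°C) and held in DNase I for 15 min before an EDTA stop, with cleavage occurring throughout. Template-switching reverse transcription and Illumina sequencing were used to read the RNAs. A 5-read minimum applied, and results are the mean of three batches.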
For G24A A28C A56U, the self-cleavage was determined as 0.16.

For the variant U25C U26C U41C U49A G61U U69A U78C, the self-cleavage was 0.06.

For U25A U76C U78A, the self-cleavage worked out at 0.2.

With U25C U41A A47G U49C U54A A64G U66C, the self-cleavage stood at 0.

Consider U25A U60C U74C, for which the self-cleavage worked out at 0.1.

In the case of U25A U26C A28U U41A, the self-cleavage worked out at 0.62.

As to U25A A56G U67C U72C, the self-cleavage is 0.18.

As for U25A U51A U54A A57U A64G U74C A77C, the self-cleavage worked out at 0.08.

As for C23U U54C U74C, the self-cleavage came to 0.34.

In the case of U25A A35G A45G U48C U66A U72C, the self-cleavage was 0.09.

Take U25C U43C G61C U72C: the self-cleavage worked out at 0.06.

For U25C A35G U48A, the self-cleavage is 0.35.

As for U25C U43C A57G, the self-cleavage came to 0.23.

Turning to U25C U26C U41C U48C, the self-cleavage came to 0.05.

In the case of U25A A57G U60A U69A, the self-cleavage was 0.12.

Take U25C A47U U54C: the self-cleavage is 0.13.

On to U25A U72G U76C, for which the self-cleavage was 0.12.

In the case of U25C U43A U76C, the self-cleavage is 0.26.

With G24A U54G U69G U80A, the self-cleavage was 0.09.

Regarding U25C G36A U43C U66C, the self-cleavage turned out to be 0.31.

In the case of U25C C34U A64G, the self-cleavage was 0.3.

Turning to G24C C40A A75G U78C, the self-cleavage is 0.07.

For the variant G24U A45G G53A U69C U80A, the self-cleavage came out at 0.06.

U25C A45G A47G U67C A75G: the self-cleavage worked out at 0.1.

With U25A U49C A77U, the self-cleavage amounted to 0.1.

For U25C A35U U41C A45U U58C A64G, the self-cleavage is 0.16.

Turning to U25A A35C G63A, the self-cleavage was 0.13.

U25C A64C U66C U69C: the self-cleavage worked out at 0.14.

Turning to U25A U51C U69C U72C, the self-cleavage turned out to be 0.12.

Regarding U25C U41C A47G U51A, the self-cleavage is 0.51.

For U25A U43C U72C, the self-cleavage was 0.27.

As for U25C U41A U48C U51A U67C U72A, the self-cleavage was 0.04.

For U25A A64G A65G C68U, the self-cleavage was 0.12.

In the case of G24A C44A A45G, the self-cleavage came to 0.16.

As to C23U U51C U69C G70U C79U, the self-cleavage is 0.26.

G24A U43C A45U U80A: the self-cleavage stood at 0.07.

As to C23U U43C U72C, the self-cleavage turned out to be 0.12.

For the variant U25C G33C U58C, the self-cleavage is 0.12.

Turning to U25C U41A A56G A64U, the self-cleavage came out at 0.07.

For U25A A47G A75U, the self-cleavage is 0.3.

Turning to G24C G36U U51C U80C, the self-cleavage was 0.2.

Consider U25C A64G U66G U78A U80C, for which the self-cleavage was found to be 0.47.

Turning to U25C C39A G46A U49A, the self-cleavage turned out to be 0.08.

Consider U25A A35G A75U U76A, for which the self-cleavage was 0.17.

For U25C C37U G63U A65G U66C, the self-cleavage was 0.05.

As to U25C C29U U31A, the self-cleavage turned out to be 0.17.

With U25C U26A U31C C34U A47G, the self-cleavage was 0.04.

Turning to U25A A47U U78A, the self-cleavage came to 0.19.

For G24A A56U C62U A64G U69C, the self-cleavage turned out to be 0.09.

Regarding U25C U31A U54C G55U U66A U69A U80A, the self-cleavage turned out to be 0.25.

G24C A28U U43A A57G: the self-cleavage is 0.08.

For U25C A45U U54C A56G A64G, the self-cleavage was 0.3.

For the variant G24A C39A U41C G46A A56G, the self-cleavage came out at 0.1.

On to U25A U43A U66C G70A U78C, for which the self-cleavage worked out at 0.07.

In the case of U25C G61C U67C, the self-cleavage worked out at 0.13.

In the case of U25C G33A U51A, the self-cleavage came out at 0.21.

As to U25C G53A A57G A77G U80C, the self-cleavage was 0.36.

On to G24A U41A U66A, for which the self-cleavage worked out at 0.08.

Take G24A U25C U26C C29U A35G A65G: the self-cleavage came to 0.14.

U25A U31C U43C A57G U69A A77U: the self-cleavage is 0.04.

Consider U25C A56U U74A, for which the self-cleavage came out at 0.21.

Take U25A A28G U41C: the self-cleavage is 0.09.

On to U25C G30U U49C C68A A75U, for which the self-cleavage is 0.11.

With U25A G30A U60G A64U U78C U80C, the self-cleavage is 0.05.

For U25C G30U U58C C62U, the self-cleavage worked out at 0.11.

On to G24U C27G U72C, for which the self-cleavage turned out to be 0.09.

For the variant G24A C27U A35C U72C A75G, the self-cleavage came out at 0.19.

Take U25C U31A A77G: the self-cleavage stood at 0.26.

U25C G46A A77G: the self-cleavage stood at 0.07.

As to U25C U41C C62U A64G, the self-cleavage turned out to be 0.49.

With G24C U41C G42A G55C A56G U60C G73A, the self-cleavage came out at 0.23.

On to U25A U48G A56G A64G U74C U76A, for which the self-cleavage turned out to be 0.08.

Regarding U25C A28G U54G, the self-cleavage was 0.11.

As for U25A U48C U54A, the self-cleavage amounted to 0.33.

For the variant U25C C68U A77G, the self-cleavage was 0.4.

G24A U26C U54G: the self-cleavage came to 0.07.

In the case of G24U A45U U58C U60C U66C, the self-cleavage came out at 0.1.

Turning to U25C C32A C37A A65G U66C C79U, the self-cleavage was found to be 0.05.

U25C U41A C50A: the self-cleavage came out at 0.28.

Consider U25A A57G C79U, for which the self-cleavage stood at 0.37.

Take U25C A35U G42A G53U: the self-cleavage worked out at 0.19.

G24A U31C U51C A56U: the self-cleavage is 0.09.

As to U25C U26C U31C U43G U49A, the self-cleavage came out at 0.

Source of the values: the RNAGym collection of RNA variant scans (doi:10.1093/nar/gkz1192).
